# The list shows a part of the results. Values were computed here from the reads of four pooled replicates and scatter widely.
# Target: T1, Pho4 (S. cerevisiae) (UniProt P07270)
# T1 sequence: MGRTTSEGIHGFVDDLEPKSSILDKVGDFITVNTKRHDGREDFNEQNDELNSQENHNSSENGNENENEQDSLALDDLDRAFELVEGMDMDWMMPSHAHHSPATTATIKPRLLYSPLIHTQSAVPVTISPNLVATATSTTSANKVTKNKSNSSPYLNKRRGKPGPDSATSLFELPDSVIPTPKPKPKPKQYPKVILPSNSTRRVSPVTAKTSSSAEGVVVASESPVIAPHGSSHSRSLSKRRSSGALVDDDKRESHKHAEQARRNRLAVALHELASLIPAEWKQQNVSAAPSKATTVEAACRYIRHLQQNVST
# Assay: relative binding free energy (BET-seq); higher = weaker binding
# Conditions: reference: library average
row,Sequence,relative binding free energy [kcal/mol]
1,TCTGGCACGTGACGGT,0.05
2,AGGAGCACGTGAGGTC,0.16
3,GGGTCCACGTGAGTGG,0.25
4,CTGTTCACGTGGAAGG,0.3
5,TTGTTCACGTGCAGGG,0.35
6,GGCAACACGTGGGATG,-0.11
7,TTAGACACGTGTTTTT,0.11
8,AGTAGCACGTGGGCGC,-0.23
9,CATTACACGTGAGTGT,0.2
10,TGGCGCACGTGGGGGT,-0.18
11,GTTTTCACGTGAACGG,0.34
12,AGGGACACGTGGATAT,0.11
13,CAGGTCACGTGGGGAG,0.01
14,CGTTGCACGTGATTGG,0.08
15,AGGGGCACGTGATTTA,-0.09
16,TGCGTCACGTGGGCAG,-0.17
17,TTTTACACGTGAGGAA,0.3
18,GGAGTCACGTGGGTGA,-0.06
19,TGGGCCACGTGATCTG,0.17
20,TAAAGCACGTGTGTCG,-0.05
21,AGTAGCACGTGGTTGG,-0.15
22,TTCAGCACGTGCGTTG,-0.07
23,TTATGCACGTGAGCGG,0.25

row,Sequence,relative binding free energy [kcal/mol]
1,GTGGGCACGTGACTTG,0.06
2,ATGTACACGTGCGTTT,0
3,TTGATCACGTGGGCTA,0.01
4,TGGTTCACGTGGGTTG,0.2
5,TAGCGCACGTGGATGG,-0.07
6,TGATACACGTGATTGT,0.1
7,TTAATCACGTGTGGAG,0.1
8,TATGACACGTGGTGGG,0.04
9,GTTTACACGTGTGTGT,0.21
10,GGTTTCACGTGAAAAG,0.41
11,GGTAGCACGTGGCAGT,-0.1
12,GAAGGCACGTGGGCAG,-0.22
13,GTCTTCACGTGGGGTT,0.24
14,CGAAACACGTGGGGGG,-0.06
15,TAACTCACGTGGGGTA,0.14
16,TATAGCACGTGACGTG,0.11
17,GGTAGCACGTGTTAAT,0.03
18,GAGAGCACGTGGTCGG,-0.13
19,ACGTTCACGTGTGGAG,0.2
20,TATGTCACGTGGCGGT,-0.18
21,AGTTTCACGTGGAGTT,0.3
22,AGTCGCACGTGGTTGG,-0.11
23,GGTTACACGTGCATGT,0.1

row,Sequence,relative binding free energy [kcal/mol]
1,AGGGACACGTGGAGCG,0.01
2,GTGCGCACGTGTGTAT,-0.15
3,TTAGGCACGTGGACTT,-0.08
4,GGTTGCACGTGTAAGA,0.2
5,TAGAGCACGTGTCATT,-0.07
6,CTTGACACGTGCTGTT,0.07
7,AGATGCACGTGACGGT,0.13
8,GGGGCCACGTGAGAAG,0.09
9,GGGTTCACGTGTTAAA,0.32
10,TTGTCCACGTGTGTGT,-0.05
11,CGTAACACGTGATGGG,0.15
12,CCAGGCACGTGTGTGT,-0.16
13,GGGTACACGTGATGCT,0.21
14,GGTATCACGTGTATCT,0.17
15,CTGCGCACGTGGTTGT,-0.35
16,AGAGTCACGTGGATTA,0.08
17,AGATACACGTGGGTTT,-0.07
18,AGAATCACGTGGGTCG,0.14
19,TTTGTCACGTGGTGAG,0.07
20,GAGTGCACGTGAGTGA,0.38
21,TATGTCACGTGATTTT,0.29
22,CGAAGCACGTGGGTGT,-0.25
23,AATGGCACGTGGGTTC,-0.12

row,Sequence,relative binding free energy [kcal/mol]
1,TTTTACACGTGACGGC,0.36
2,CTTGGCACGTGACGGT,-0.06
3,AAGGGCACGTGAGTCA,0.21
4,CTGTTCACGTGTGGCT,0.34
5,TTTGGCACGTGATGAC,-0.04
6,GTATTCACGTGTTTGA,0.33
7,TGCAGCACGTGTAGTT,0.01
8,GGTTGCACGTGCGTAG,-0.03
9,GTCGACACGTGTAGTT,0.07
10,CTTAGCACGTGGTCTT,-0.07
11,ATGGCCACGTGTTGGC,-0.03
12,GACGTCACGTGGGATT,0.13
13,GGTAACACGTGGGTAC,-0.09
14,TGGCTCACGTGTGATT,0.41
15,GGTAGCACGTGTTCGA,0.01
16,TTTACCACGTGGAGTT,-0.11
17,ATTTACACGTGGGCGA,0.05
18,GGAAACACGTGTGGAG,0.14
19,TTGGGCACGTGACGTG,0.04
20,AACTTCACGTGTGTAG,0.33
21,GGAATCACGTGTAGAT,0.31
22,GTCGGCACGTGATTTA,0.03
23,CGTAGCACGTGAGGCG,0.11

row,Sequence,relative binding free energy [kcal/mol]
1,ATGCACACGTGGCGGG,-0.06
2,GATGACACGTGGTATA,0.04
3,AGTAACACGTGGGTCA,0.09
4,TATTTCACGTGGTCTG,0.27
5,GATGGCACGTGGAGCT,-0.13
6,ATGGACACGTGAGGAT,0.24
7,GTCGTCACGTGGTTCT,0.15
8,TGGGGCACGTGGAGGG,-0.06
9,TGGCTCACGTGGGGAG,0.19
10,AGAGACACGTGGAGGA,-0.02
11,ATATGCACGTGTATAA,-0.07
12,GGTGTCACGTGTTGTT,0.14
13,CTTTGCACGTGGAGTG,0.02
14,AGTATCACGTGTGTTA,0.16
15,ACGGTCACGTGTTTTA,0.04
16,TGTGCCACGTGAGGTT,-0.03
17,AAGGTCACGTGGGCAT,-0.01
18,ATTGGCACGTGGGTCA,-0.22
19,TGGAGCACGTGGAGCT,-0.1
20,CAGTTCACGTGTTGCG,0.24
21,TTAAACACGTGATGAG,0.18
22,TTGAGCACGTGGAGAG,-0.04
23,CGGGGCACGTGAGAGT,0.21
